Hit rate of the full screen: of about 46,000 compounds, about 60 (0.1%) were called active. About 3% were inconclusive and are not listed. Calls follow the shape of the dose curve; as a rule, active = well fitted inhibition curve with a large enough effect; inconclusive = small, poorly fitted or top-dose-only effect; inactive = no such curve, though single readings can be large or run the other way. This is one part of the list.
Assay: Primary qHTS assay for Inhibitors of ovarian cancer metastasis using an organotypic tumor microenvironment (TME) model. Also: nearly all actives have a fitted effect of over 65% in size.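 As to activity change, negative = inhibition: plate controls were DMSO wells for no effect and tomatine positive control wells for full effect.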
Conditions: SKOV3ip1-GFP adhesion/invasion on 3D omental model, fluorescence; series mostly up to 45.8 µM; activity change, negative = inhibition: at the top concentration
Summary of the method: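 qHTS, 4-pt dose (0.36-46 umol/L); SKOV3ip1-GFP, 1,200 cells/well, no FBS; primary omental fibroblast/mesothelial co-culture 48 h pre-grown; 2 h RT + 16 h 37 C; PBS wash, 4% PFA; GFP count 488/509 nm.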

Activity change, negative = inhibition, inactive:
Cc1ccc(-c2noc(CSc3nnc(C)n3-c3ccc(C)c(C)c3)n2)cc1 31.1%
COc1ccc(Cl)cc1NC(=O)CSc1ccc2nnc(CCNS(=O)(=O)c3ccccc3)n2n1 -0.167%
NS(=O)(=O)c1cc2c(cc1Cl)NCNS2(=O)=O 6.43%
O=C(COc1ccc(F)cc1)OCc1cc(=O)n2nc(-c3cccs3)sc2n1 -0.432%
COc1ccc(/C=C(\C#N)c2nc3ccccc3c(=O)[nH]2)cc1OC 0.841%
CCOc1ccc(S(=O)(=O)Nc2ccc3oc4c(c3c2)CC(C)CC4)cc1 (stereo not drawn) 14.6%
COc1ccccc1CNC(=O)COCc1cc(-c2ccc3c(c2)OCO3)on1 13.3%
COc1ccc(C)c2sc(NC(=O)c3ccc(S(=O)(=O)N4CCCC4)cc3)nc12 22.8%
CCOc1ccccc1CNC(=O)Cn1nc(N2CCN(c3ccccc3)CC2)ccc1=O 13.5%
COc1ccc(C(=O)NCc2ccc3c(c2)CCN3C(=O)c2ccc(F)cc2)cc1 -3.99%
COc1cc(NS(=O)(=O)c2c(C)nc3sc(C)c(C)n3c2=O)cc(OC)c1 3.85%
CCc1ccc(NC(=O)C2=CC(c3cccs3)=NS(=O)(=O)N2C)cc1 -20.6%
CN(C)c1ccc(CNC(=O)C2COc3ccccc3C2)cc1 (stereo not drawn) -1.94%
O=C(CSc1ncccc1C(=O)Oc1ccccc1Cl)Nc1ccccc1Cl -0.252%
O=C1c2cccc(O)c2C(=O)c2c(O)cc(CO)cc21 -6.93%
CN(C)CCC=C1c2ccccc2C=Cc2ccccc21 -7.97%
O=C(NCc1ccco1)c1ccc(Cn2c(SCc3ccccc3F)nc3cccnc32)cc1 -23.7%
O=C(NCc1ccc(Cl)cc1)NC1COc2ccccc2C1 (stereo not drawn) 2.59%
CC1CCN(S(=O)(=O)c2ccc3c(c2)N(CC(=O)NCC(C)c2ccccc2)C(=O)CO3)CC1 (stereo not drawn) 3.06%
Cn1nnnc1SCCCNCc1cccc(OCc2ccccc2)c1 -0.082%
Cc1ccc(-c2cc(C(F)(F)F)n3ncc(-c4ccccc4)c3n2)cc1 1.38%
CCOc1ccc(C(=O)c2oc3ccccc3c2NC(=O)c2cc(-c3ccc(C)cc3)on2)cc1 4.8%
CN(C)CCc1c[nH]c2ccc(C[C@H]3COC(=O)N3)cc12 -0.694%
CCOc1ccccc1NC(=O)C1CCCN1S(=O)(=O)c1ccc2nc(-c3ccccc3)[nH]c2c1 (stereo not drawn) -14.5%
COc1ccc(CCNC(=O)Cn2cc(S(=O)(=O)Cc3ccc(F)cc3)c3ccccc32)cc1OC 0.175%
O=C(NC1CCCCC1)c1ccc2c(c1)N(Cc1ccccc1Cl)C(=O)c1ccccc1S2 -3.36%
O=S(=O)(c1ccccc1)c1nnn2c1nc(NCc1ccccc1)c1cc(Cl)ccc12 -1.06%
Cc1ccc2occ(CC(=O)Nc3ccc(S(=O)(=O)N4CCC(C)CC4)cc3)c2c1 -3.22%
Cc1nc2nc(C)c(CCC(=O)NCc3ccccc3)c(C)n2n1 -15.7%
CCOCCn1ccc2c(OCC(=O)Nc3cccc(F)c3)cccc2c1=O 5.41%
CCC(C)NC(=O)Cn1c(=O)n(Cc2ccc(C(=O)NCc3ccc(C)cc3)cc2)c(=O)c2ccccc21 (stereo not drawn) -0.459%
COc1ccc(C)cc1Nc1ncnc2c1c(-c1ccccc1)cn2-c1ccc(C)cc1 7.11%
Cc1ccc(C2c3c(oc4ccccc4c3=O)C(=O)N2c2nnc(C)s2)cc1 (stereo not drawn) 4.57%
CCCOc1ccc(-c2cc(C(F)(F)F)c(C#N)c(SCCC(=O)O)n2)cc1 -0.94%
Cc1ccc(S(=O)(=O)C(CNC(=O)COc2ccccc2)c2ccco2)cc1 (stereo not drawn) 0.0982%
O=C(Nc1ccccc1C(=O)OCc1cc(=O)n2nc(C3CC3)sc2n1)c1cccc(F)c1 0.634%
Cc1ccc(CNC(=O)CSc2nc3n[nH]c(C)c3c(=N)n2-c2ccccc2Cl)cc1 -17.1%
Cc1cc(C)n(-c2nc3cc(Cl)ccc3nc2N2CCN(c3ccccc3F)CC2)n1 -1.05%
COCCNC(=O)c1ccc(-c2nc(CS(=O)(=O)c3ccccc3)c(C)o2)cc1 10.8%
CN1C(=O)C2(SCC(=O)N2c2ccc(Cl)cc2)c2ccccc21 (stereo not drawn) 4.12%
Cc1ccc(CCNC(=O)c2ccc3c(c2)nc2n3CCOC2)cc1 -20.7%
Cc1nc2sccn2c(=O)c1S(=O)(=O)Nc1cc(C(F)(F)F)ccc1Cl 1.28%
O=C(Nc1ccc(F)c(Cl)c1)N1CCC(CN2CCOCC2)CC1 -9.91%
COc1ccccc1CNC(=O)CSc1nnc(C)c2c(C)n(-c3ccccc3)nc12 -2.03%
O=C(CSc1nc2c(c(=O)[nH]1)CN(Cc1ccc3c(c1)OCO3)CC2)Nc1ccccc1Cl 18.8%
COc1cccc(Cn2c(CNS(=O)(=O)c3ccc(Cl)s3)nc3cccnc32)c1 -34.9%
CNNCc1ccc(C(=O)NC(C)C)cc1 2%
CCc1nn2c(=O)c(S(=O)(=O)Nc3ccc(C(C)C)cc3)c(C)nc2s1 3.58%
CC(=O)N1CCCc2cc(S(=O)(=O)N3CCCC(C(=O)NCc4ccc(C)cc4)C3)ccc21 (stereo not drawn) -10.3%
CCOc1ccc(NCc2nc3ccccc3n2CCOc2ccc(C)cc2)cc1 7.71%
CCOc1ccc(NC(=O)CSc2nc3ccsc3c(=O)n2CCCCCC(=O)O)cc1 23.6%
CCOc1ccc(Cn2c(=O)sc3ccccc32)cc1 -1.44%
CC(=O)N1CCc2cc(S(=O)(=O)NC(CC(C)C)C(=O)Nc3cc(C)cc(C)c3)ccc21 (stereo not drawn) -4.69%
Cc1cccc(C)c1NC(=O)CS(=O)(=O)c1nc(-c2ccc(Cl)cc2)cn1-c1ccccc1 0.475%
CCC(=O)C1=C(c2ccc(C)cc2)N(C(=O)CC)n2c(nnc2C2CCCCC2)S1 -9.26%
CC1=C(C(=O)Nc2ccccc2C)C(c2ccccn2)n2ncnc2N1 (stereo not drawn) 10.4%
CCOC(=O)c1nc(NCc2ccc(Cl)cc2)c2c(C)noc2n1 -1.12%
COc1ccc(NC(=O)CSc2nc(-c3cccc(C)c3)[nH]c2-c2ccccc2)cc1OC 8.18%
Cc1ccc(C)c(-c2ccc(=O)n(Cc3c(F)cccc3Cl)n2)c1 -4.35%
CC(=O)N1CCc2c(sc3c2c(=O)n(CCc2ccccc2)c(=O)n3Cc2ccccc2C)C1 -12%
CC(C)Sc1ncc(Cl)c(C(=O)Nc2ccc(S(=O)(=O)N3CCCCC3)cc2)n1 5.02%
CC(C)c1noc(-c2ccccc2OCC(=O)Nc2cccc([N+](=O)[O-])c2)n1 -0.232%
CCOc1ccc(-c2c(C)nn3c(C)c(C(=O)Nc4cc(C)cc(C)c4)cnc23)cc1OCC -12.9%
Cc1ccc(CN(C(=O)COc2cc(C)c(Cl)c(C)c2)c2ccccn2)o1 13.1%
CC(=O)N1CCc2cc(Br)cc(S(=O)(=O)CCC(=O)N3CCN(c4ccccc4Cl)CC3)c21 3.38%
CCOc1ccc(Nc2c(S(=O)(=O)c3ccccc3)cnc3ccc(F)cc23)cc1 -5.63%
COc1cc(C2CC(=O)Oc3c2c(=O)[nH]c2ccccc32)cc(OC)c1OC (stereo not drawn) -9.17%
COc1ccccc1N1CCN(S(=O)(=O)c2c(C)nc3sccn3c2=O)CC1 1.69%

outcome, inactive:
O=C1C(=O)N(C2CCN(C(=O)c3ccccc3F)CC2)CCN1Cc1ccc(F)cc1
COc1cccc(CNS(=O)(=O)c2c(C(=O)N3CCC(C)CC3)c(C)n(C)c2C)c1
CCN1CCN(c2ncnc3c2cnn3-c2cccc(C)c2)CC1
Cc1c(C(=O)OCc2ccccc2)[nH]c2c1C(=O)CC(c1ccc(Cl)cc1)C2 (stereo not drawn)
CC(C)c1ccc(NC(=O)CCS(=O)(=O)c2ccc3c(c2)CC(=O)N3C)cc1
CCCCCn1cc2c(c1-c1ccccc1Br)c(=O)n(C)c(=O)n2C
O=C(Nc1cccc(F)c1)c1oc2ccccc2c1NC(=O)C12CC3CC(CC(C3)C1)C2
CCOc1ccc2ncc3c(-c4cccc(OC)c4)nn(-c4ccccc4)c3c2c1
CCOc1ccccc1CNCCSc1nnnn1C
COc1cccc(Cc2nc3ccccc3nc2SCC(=O)Nc2cc(OC)ccc2OC)c1
COc1ccc(OC)c2sc(N3CCN(C(=O)C4COc5ccccc5O4)CC3)nc12 (stereo not drawn)
CCN(CCCNC(=O)CN1N=C(c2ccccc2)CCC1=O)c1ccccc1
O=c1c2sc3ccccc3c2n(Cc2ccccc2)c(=O)n1CCc1ccccc1
CC(C)CCNC(=O)C(Cc1ccccc1)NS(=O)(=O)c1ccc2c(c1)c(=O)n(C)c(=O)n2C (stereo not drawn)
CCCN(CCC)C(=O)Cn1c(=O)n(CCCCCC(=O)NCc2ccccc2Cl)c(=O)c2sccc21
CS(=O)(=O)N1CCc2cc(C(=O)Nc3ccc(C(F)(F)F)cc3)ccc21
CCOCCCn1c(SCC(=O)Nc2ccccc2Cl)nc2c(oc3ccccc32)c1=O
Cc1ccccc1OCCCCn1nnc2sc3c(c2c1=O)CCC(C)C3 (stereo not drawn)
CCc1ccc(-n2nc3ccc(NC(=O)COc4ccc(OC)cc4)cc3n2)cc1
Cc1cccn2c(=O)c3cc(C#N)c(=O)n(-c4nnc(SCc5ccc(Cl)cc5)s4)c3nc12
Cc1c(Cl)cccc1NC(=O)CCOc1ccccc1
Cc1ccc(C)c(Cn2c(=O)c3c(nc4n3CCN4c3ccccc3)n(C)c2=O)c1
Cc1ccc(NC(=O)CN2C(=O)COc3ccc(S(=O)(=O)NC4CCCC4)cc32)cc1N(C)C
Cc1cc(C)c2c(c1)c(C)cc1nnc(SCc3ccccc3C#N)n12
CCN(CC)S(=O)(=O)c1ccc2c(c1)c(=O)c(C(=O)N1CCN(c3cc(Cl)ccc3C)CC1)cn2C
COc1ccc(-c2nc3scc(CCNS(=O)(=O)c4ccc5c(c4)OCCO5)n3n2)cc1
O=C(Oc1ccccc1F)c1nc(SCc2ccc(F)cc2)ncc1Cl
Cc1ccc(-c2cc3nc(-c4ccccc4)cc(C(F)(F)F)n3n2)cc1
Cc1ccc(NC(=O)C2CCN(S(=O)(=O)c3cccc4nonc34)CC2)cc1C
Cc1ccc(S(=O)(=O)c2c(O)cc(C)c(NS(=O)(=O)c3ccc(Cl)cc3)c2C)cc1

Source: PubChem BioAssay AID1963576 (National Center for Advancing Translational Sciences (NCATS), 2024)
